Values marked as one replicate rest on one cluster of the flow cell; about a third of the high ones do not repeat.
test system: ATP; assay: switch fluorescence ratio, 500 uM ATP over buffer (Cy3 cluster intensity, sum of 5 cycles each) (fold (ratio)); higher = stronger signal-on switching upon ATP binding; sequences stand for … in TCGTCGGCAGCGTCAGATGTGTATAAGAGACAGTTTTTTTTTTTTTTTTTTTTTTTTT…TC; settings: aptamer strand: ATP DNA aptamer (quencher-CACCTGGGGGAGTATTGCGGAGGAAGG + anchor), 100 nM annealed; ATP concentration: 500 uM; one replicate
Procedure, shortened: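 Per cluster, summed Cy3 intensity from the target cycles was divided by that from the buffer cycles to give the fluorescence ratio, then averaged per switch-domain sequence. Clusters outside 100-1000 RFU were excluded. The Cy3-labelled switching-strand clusters, on a modified Illumina MiSeq flow-cell, were annealed to 100 nM quencher-labelled ATP aptamer and imaged in selection buffer, then after 15 min with 500 uM ATP at 22 °C, for five cycles with NaOH stripping and re-annealing between them.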
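Further: ATP exposure 15 min at 22 °C before imaging.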

Sequence | switch fluorescence ratio
CCGTTGAGCA | 1.88
CCGTTGGGG | 1.09
CCGTTTATCA | 0.985
CCGTTTGCTC | 1.84
CCTAACAGAG | 1.02
CCTAACGATC | 1.14
CCTAACTGT | 1.03
CCTAAGCCAA | 3.14
CCTAAGTTT | 0.984
CCTAATCATA | 0.999
CCTACTCCTC | 0.973
CCTAGAAGCT | 1.12
CCTAGAATTG | 1
CCTAGCGC | 1.03
CCTAGGCCAC | 1.77
CCTAGGGATG | 0.978
CCTAGGGCGA | 1.04
CCTAGGGTAT | 1.02
CCTAGGTTTT | 0.983
CCTAGTGAA | 1
CCTAGTGAAT | 0.997
CCTAGTTTCT | 0.973
CCTATGGATC | 1.04
CCTATGGGTA | 0.991
CCTATTATA | 0.934
CCTATTCAGT | 1.03

Sequence | switch fluorescence ratio
CCTCAAACCT | 1.94
CCTCAGTATT | 1.51
CCTCATGATT | 1.06
CCTCATTCGT | 1.05
CCTCCACGAG | 3.53
CCTCCCTTA | 5.31
CCTCCTTTTC | 2.67
CCTCGAAGAT | 1.79
CCTCGATGGG | 1.03
CCTCGCATAG | 3.73
CCTCGCTGCG | 1.53
CCTCGCTGGG | 2.18
CCTCTAAAGA | 4.26
CCTCTCAAAA | 3.33
CCTCTCCCGG | 2.24
CCTCTCGGGG | 0.995
CCTCTGATAG | 4.3
CCTCTGCTCG | 3.45
CCTCTTATG | 1.07
CCTCTTATGG | 1.09
CCTGACAACT | 1.06
CCTGACGGAT | 1.08
CCTGACGTAC | 2.41
CCTGAGACTT | 1.01
CCTGAGGCGT | 1.03
CCTGATAAGG | 1

Sequence | switch fluorescence ratio
CCTGATGTGG | 1.01
CCTGATGTT | 1.03
CCTGATTCGG | 1.01
CCTGCAGT | 1.61
CCTGCATCG | 1.05
CCTGCCTAT | 1.19
CCTGCGCCAG | 2.08
CCTGCGGAT | 1.5
CCTGCGGCCT | 1.17
CCTGCGGTAT | 1.71
CCTGCTAGTG | 1.06
CCTGCTCGGT | 1.05
CCTGCTGCGT | 1.36
CCTGCTGGGA | 1.01
CCTGCTTTCG | 1.07
CCTGGCGATA | 3.43
CCTGGCTCTT | 1.02
CCTGGGGGCG | 1.01
CCTGGTAGGT | 0.993
CCTGGTGGGC | 1.01
CCTGTAATTA | 1.12
CCTGTAGGC | 0.972
CCTGTAGTCA | 1.02
CCTGTAGTTT | 0.984
CCTGTCAGTT | 1.02

From the supplement of paper PMC10126150
